From PubChem BioAssay AID1645882 (National Center for Advancing Translational Sciences (NCATS), 2021)
The campaign covered roughly 16,000 compounds. About 120 (0.75%) were called active. Not shown: some 4% with an inconclusive outcome. The call rests on the fitted dose curve; in most records, active means well fitted inhibition curve with a large enough effect; inconclusive means small, poorly fitted or top-dose-only effect; inactive means no such curve, though single readings can be large or run the other way. The list shows a part of the results.

Target: Rap guanine nucleotide exchange factor 3 (Homo sapiens) (UniProt O95398)
Sequence of UniProt O95398 (O95398 whole entry, looked up): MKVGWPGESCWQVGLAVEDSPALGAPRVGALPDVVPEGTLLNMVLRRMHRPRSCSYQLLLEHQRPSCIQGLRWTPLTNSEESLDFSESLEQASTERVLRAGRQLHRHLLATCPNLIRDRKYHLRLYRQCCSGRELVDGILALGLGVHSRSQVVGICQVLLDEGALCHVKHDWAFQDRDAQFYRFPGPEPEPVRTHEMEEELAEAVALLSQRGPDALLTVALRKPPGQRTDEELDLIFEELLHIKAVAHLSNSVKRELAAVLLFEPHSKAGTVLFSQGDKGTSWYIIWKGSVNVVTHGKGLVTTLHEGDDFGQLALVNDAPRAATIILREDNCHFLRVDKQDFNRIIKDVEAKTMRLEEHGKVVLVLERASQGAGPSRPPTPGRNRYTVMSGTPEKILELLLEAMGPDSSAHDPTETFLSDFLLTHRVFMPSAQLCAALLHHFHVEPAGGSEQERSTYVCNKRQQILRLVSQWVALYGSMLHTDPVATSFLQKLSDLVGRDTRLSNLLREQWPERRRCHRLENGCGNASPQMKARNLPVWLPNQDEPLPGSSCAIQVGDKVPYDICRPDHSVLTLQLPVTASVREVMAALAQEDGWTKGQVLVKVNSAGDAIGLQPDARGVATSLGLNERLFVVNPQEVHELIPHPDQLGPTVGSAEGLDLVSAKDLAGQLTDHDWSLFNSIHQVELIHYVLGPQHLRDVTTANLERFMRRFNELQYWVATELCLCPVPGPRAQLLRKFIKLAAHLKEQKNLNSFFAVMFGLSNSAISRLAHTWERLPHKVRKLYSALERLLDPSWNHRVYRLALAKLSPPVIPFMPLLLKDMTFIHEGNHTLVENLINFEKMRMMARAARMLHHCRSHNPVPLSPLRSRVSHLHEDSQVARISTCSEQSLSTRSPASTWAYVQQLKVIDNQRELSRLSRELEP
Assay: Validation qHTS for antagonist of cAMP-regulated guanine nucleotide exchange factor 3 (EPAC1);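 further: plate controls were DMSO for no effect and ATA control for full effect; nearly all actives have a fitted effect of over 75% in size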
Details: EPAC1 Rap1B-BODIPY-GDP exchange, fluorescence; series mostly up to 150 µM; activity change, negative = inhibition: at the top concentration
Outline: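 Nucleotide exchange followed as fluorescence loss when BODIPY-GDP leaves Rap1B (480 nm excitation, 540 nm emission), read at 5 min intervals over 30 min. Reaction: 100 nM EPAC1, 250 nM RAP1B-BODIPY-GDP, 50 uM GDP; ATA and DMSO define normalization.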

Activity change, negative = inhibition, inactive:
CO[C@@]1(NC(=O)CSCC#N)C(=O)N2C(C(=O)O)=C(CSc3nnnn3C)CS[C@@H]21
CCCCCCc1ccc(N2C[C@H](Cc3ccccc3)[C@@H](CC(=O)NCc3ccc(OC)cc3)C2=O)cc1 2.85%
CC(N)=NCCCC[C@@H](N)C(=O)O 2.12% [at 75.8 µM]
N=C(N)c1ccc(OCCCOc2ccc(C(=N)N)cc2)cc1 1.56%
COc1ccc2[nH]c(I)c(CCNC(C)=O)c2c1
COc1ccc(Oc2ncc3ncc(=O)n(-c4ccc(OC)cc4)c3n2)cc1 -5.41%
O=C1Cc2cc(CCN3CCN(c4nsc5ccccc45)CC3)c(Cl)cc2N1
CO[C@H]1C=CO[C@@]2(C)Oc3c(C)c(O)c4c(O)c(c5c(nc6cc(C)ccn65)c4c3C2=O)NC(=O)/C(C)=C\C=C[C@H](C)[C@H](O)[C@@H](C)[C@@H](O)[C@@H](C)[C@H](OC(C)=O)[C@@H]1C -24.3%
OC[C@H]1O[C@@H]2O[C@H]3[C@H](O)[C@@H](O)[C@@H](O[C@H]4[C@H](O)[C@@H](O)[C@@H](O[C@H]5[C@H](O)[C@@H](O)[C@@H](O[C@H]6[C@H](O)[C@@H](O)[C@@H](O[C@H]7[C@H](O)[C@@H](O)[C@@H](O[C@H]8[C@H](O)[C@@H](O)[C@@H](O[C@H]1[C@H](O)[C@H]2O)O[C@@H]8CO)O[C@@H]7CO)O[C@@H]6CO)O[C@@H]5CO)O[C@@H]4CO)O[C@@H]3CO 19.8%
O=c1c(-c2ccccc2)nc2cncnc2n1Cc1ccc(F)cc1 -6.97%
Cc1cc(C)n2nc(C(=O)NCC3Cc4cccc(-c5ccc(S(C)(=O)=O)cc5)c4O3)cc2n1 (configuration not stated) -2.18%
Cc1ncc2c(c1CNS(=O)(=O)N(C)C)CCN(C(=O)/C=C/c1ccccc1Cl)C2 11.3%
C[N+](C)(C)CCCCCNCC12CC3CC(CC(C3)C1)C2 12.5%
CCN[C@H]1C[C@H](C)S(=O)(=O)c2sc(S(N)(=O)=O)cc21 1.11%
CCCC(=O)N1CCCN(c2nc(N)c3cc(OC)c(OC)cc3n2)CC1 -1.97%
Cc1cc(CNC(=O)c2cnn(-c3ncc4c(n3)-c3ccccc3CCC4)c2C2CC2)on1 10.9%
COC(=O)N1CCC2(CC1)CN(C(=O)Nc1ccccc1)C2 15.7%
Cn1cccc1C(=O)N1CCC[C@@]2(CCN(C(=O)Nc3cccc(C#N)c3)C2)C1 2.76%
O=c1c(-c2ccc(Cl)cc2)nc2cnc(Nc3ccccc3)nc2n1C[C@H]1CCCO1 28.8%
CC(C)[C@H]1COCCS(=O)(=O)N1Cc1cccc([N+](=O)[O-])c1 7.82%
N[C@H](CO)C(=O)O
CC(C)NC(=O)N1CC2(CCN(C(=O)c3cccn3C)CC2)C1 -9.6%
COc1ccc(-n2c(CNC(=O)c3cccc(OC)c3OC)nnc2SC)cc1 28.6%
CC(=O)SC[C@@H](Cc1ccccc1)C(=O)NCC(=O)OCc1ccccc1 -1.37% [at 75.8 µM]
COc1ncc2nc(-c3ccc(F)cc3)c(=O)n(C)c2n1 8.31%
Cc1noc(C)c1-c1nccc(N2CCNCC2)n1 20.8%
COC(=O)C[C@H]1c2ccccc2S(=O)(=O)N1c1cccc(OC)c1 -9.57%
NC(Cc1cccc(-c2ccccc2CP(=O)(O)O)c1)C(=O)O (configuration not stated) -1.06% [at 75.8 µM]
O=S(=O)(c1cccc2cnccc12)N1CCNCC1 -1.91%
COc1ccccc1C1CN(Cc2cccc3c2OCO3)Cc2ccccc2O1 (configuration not stated) 13.3%
COc1ccc(CN2CC[C@H]3C=CC[C@@H](C(=O)Nc4nccs4)[C@H]3C2=O)cc1OC -9.93%
O=C(O)Cc1cccc(-c2cc(CCCCCCc3ccc(O[C@H]4O[C@H](CO)[C@@H](O)[C@H](O)[C@@H]4O)c(-c4cccc(CC(=O)O)c4)c3)ccc2O[C@H]2O[C@H](CO)[C@@H](O)[C@H](O)[C@@H]2O)c1 5.91%
CC(=O)N(O)CCCCCNC(=O)CCC(=O)N(O)CCCCCNC(=O)CCC(=O)N(O)CCCCCN
Cc1ccc(C)c(S(=O)(=O)NCc2nc(N3CCCC3)c3cc(Cl)ccc3n2)c1 -7.21%
Cc1ccccc1-c1ccc2ncnc(N3CCOCC3)c2c1 -2.13%
CC(C)(C(=O)c1cccnc1)c1cccnc1 23% [at 75.8 µM]
C[C@@H](c1ncncc1F)C(O)(Cn1cncn1)c1ccc(F)cc1F (some centres not stated) 21.6%
COc1ccc(/C=C/C(=O)CC(=O)/C=C/c2cccc(O)c2OC)cc1O 19.2% [at 201 µM]
NCCCCNCCCN
Cc1cc[n+](C2CCCCC2)cc1 14.6%
Nc1ncn([C@H]2C[C@H](O)[C@@H](CO)O2)c(=O)n1 7.31%
Cc1ncc2c(c1O)COP(=O)(O)OC2 7%
O=C(c1cnn(-c2nccc(-c3ccccc3F)n2)c1C1CC1)N1CCCCC1c1cccnc1 (configuration not stated) 12.1%
CN1CC(=O)NC1=N 14.5%
O=C1C(c2[nH]c3ccc(S(=O)(=O)O)cc3c2O)=Nc2ccc(S(=O)(=O)O)cc21
CS(=O)(=O)Nc1cccc(-c2nc(N3CCOCC3)c3ccccc3n2)c1 15.7%
Cc1c(C)c2c(c(C)c1OC(=O)CCC(=O)OCCO)CC[C@@](C)(CCC[C@H](C)CCC[C@H](C)CCCC(C)C)O2 -1.01%
O=S1(=O)CCOC[C@H](c2ccccc2)N1Cc1ccccc1 -9.69%
CCOC(=O)Cc1cccc(-c2cc(CCCCCCc3ccc(O[C@H]4O[C@H](COC(C)=O)[C@@H](OC(C)=O)[C@H](OC(C)=O)[C@@H]4OC(C)=O)c(-c4cccc(CC(=O)OCC)c4)c3)ccc2O[C@H]2O[C@H](COC(C)=O)[C@@H](OC(C)=O)[C@H](OC(C)=O)[C@@H]2OC(C)=O)c1 16.7%
CN(C)c1ccc(-c2cc(NCc3ccccc3)ncn2)cc1 24.8%
C=CC(C)=C[C@@]1(C)SC(=O)C(C)=C1O 3.65% [at 75.8 µM]
CC(=O)Nc1ccc(NC(=S)NC(=O)c2ccc(C(C)(C)C)cc2)cc1 9.43%
O=C1CCN(Cc2ccc(O)cc2)CCN1[C@H](CO)Cc1ccccc1 13.1%
COc1ccc(-c2cc(C)cc3c2OC(CNC(=O)/C=C/c2ccncc2)C3)nn1 (configuration not stated) 15.6%
OCCN1CCN(Cc2ccc3c(c2)CN(Cc2cnc(-c4ccccc4)s2)CCO3)CC1 18%
O=C(CS(=O)Cc1ccco1)NCC=CCOc1cc(CN2CCCCC2)ccn1 (configuration not stated) 13.1%
NC12CC3CC(CC(C3)C1)C2
